Data on 54 molecules can be found in PubChem BioAssay AID1346428 (National Center for Advancing Translational Sciences (NCATS), 2018).

Values joined by “and” are separate entries in the source; they are usually repeats but may differ in a detail not shown here. Equal entries are not always repeated. Out of some 48,000 compounds screened, about 1,200 (2.5%) were called active. Inconclusive results (about 2%) are left out.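 Rule for the calls: active = activation of at least 60% and not above a set upper limit (about 1 call in 100 departs from these limits); inconclusive = activation of 40% to 60%, or above that upper limit; inactive = activation under 40%.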 Some of the results follow.

The assay addresses Probable G-protein coupled receptor 32 (Homo sapiens) (UniProt O75388). Description: qHTS for Agonists of Human Resolvin D1 Receptor DRV1. Note: 0% is about no effect. The conditions noted are these: CHO-K1 GPR32 beta-arrestin PathHunter luminescence, 90 min; at 76.9 µM; hits give high values; zero percent set by DMSO-only wells. In a few lines: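 Beta-arrestin recruitment read-out: luminescence from complemented beta-Gal in CHO-K1 GPR32 PathHunter cells, measured 1 h after detection reagent at ambient temperature following 90 min compound exposure at 37 °C; DMSO served as basal (EC0) control.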
UniProt O75388, sequence (O75388 whole entry, looked up): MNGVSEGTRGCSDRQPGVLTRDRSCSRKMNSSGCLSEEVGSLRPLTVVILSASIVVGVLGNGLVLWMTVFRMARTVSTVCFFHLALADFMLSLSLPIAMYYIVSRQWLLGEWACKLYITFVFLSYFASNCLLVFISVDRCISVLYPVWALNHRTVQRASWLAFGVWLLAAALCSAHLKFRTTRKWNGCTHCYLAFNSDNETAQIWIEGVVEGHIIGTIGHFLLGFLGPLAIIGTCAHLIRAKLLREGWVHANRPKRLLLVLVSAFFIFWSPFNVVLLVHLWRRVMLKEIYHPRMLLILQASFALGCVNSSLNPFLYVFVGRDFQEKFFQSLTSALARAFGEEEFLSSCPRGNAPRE
In the case of `CCOc1ccc(S(=O)(=O)Nc2cccc(-c3ccc(N4CCC(C)CC4)nn3)c2)cc1`, the activation is inactive: -8.14%. Consider `Cn1nnnc1SCCCNCc1cccc(OCc2ccccc2)c1`, for which the activation was inactive: -2.85%.

`CN(C)c1ccc(CNC(=O)C2COc3ccccc3C2)cc1` (centres undefined): the activation is inactive: -6.3%. Turning to `O=C(CSc1ncccc1C(=O)Oc1ccccc1Cl)Nc1ccccc1Cl`, the activation is inactive: -23.5%.

`O=C(NCc1ccco1)c1ccc(Cn2c(SCc3ccccc3F)nc3cccnc32)cc1`: the activation is inactive: -17.3%. For `CN(C)CCC=C1c2ccccc2C=Cc2ccccc21`, the activation is inactive: 19.1% and inactive: -3.6%.

As for `CCN1CCN(c2ncnc3c2cnn3-c2cccc(C)c2)CC1`, the activation is inactive: -11.1%. On to `COc1ccc(CCNC(=O)Cn2cc(S(=O)(=O)Cc3ccc(F)cc3)c3ccccc32)cc1OC`, for which the activation was inactive: -10.8%.

Turning to `CCOc1ccccc1NC(=O)C1CCCN1S(=O)(=O)c1ccc2nc(-c3ccccc3)[nH]c2c1` (centres undefined), the activation was inactive: -34.2%. For the molecule `CN(C)CCc1c[nH]c2ccc(C[C@H]3COC(=O)N3)cc12`, the activation is inactive: -13.8%.

`O=C(NC1CCCCC1)c1ccc2c(c1)N(Cc1ccccc1Cl)C(=O)c1ccccc1S2`: the activation was inactive: -10.4%. With `Cc1ccc(-c2cc(C(F)(F)F)n3ncc(-c4ccccc4)c3n2)cc1`, the activation was inactive: 10.9%.

For the molecule `CCOc1ccc(C(=O)c2oc3ccccc3c2NC(=O)c2cc(-c3ccc(C)cc3)on2)cc1`, the activation is inactive: -10.6%. For the molecule `CCCCN(C)C(=O)CSc1nc2ccccc2nc1Cc1ccc(C)cc1`, the activation is inactive: 10.1%.

Consider `CCOc1ccc(NC(=O)c2cc(S(=O)(=O)N3CCN(c4ccccc4F)CC3)ccc2F)cc1`, for which the activation was inactive: 1.41%. On to `Cc1ccc2[nH]c(=O)c3cc(C(=O)NC4CCC(C)CC4)sc3c2c1` (centres undefined), for which the activation was inactive: -2.1%. Regarding `C[N+]1(C)CCC(=C(c2ccccc2)c2ccccc2)CC1`, the activation is inactive: -14%. The figure for `COc1ccccc1CNC(=O)C(=O)NCC(c1cccs1)S(=O)(=O)c1cccs1` (centres undefined) is inactive: 28.6%; for `CCOc1ccc(Nc2c(S(=O)(=O)c3ccc(C)cc3)cnc3ccc(F)cc23)cc1` it is inactive: -44%; for `Cc1ccc2oc(C(=O)N(Cc3sccc3C)C3CCS(=O)(=O)C3)c(C)c2c1` (centres undefined) it is inactive: -32%. The figure for `COc1ccc(-n2c(=O)c3c4c(sc3n(C)c2=O)CN(C(C)=O)CC4)cc1` is inactive: -11.5%; for `O=c1cc(-c2ccccc2)n2c(SCc3ccccc3Cl)nnc2[nH]1` it is inactive: -2.6%.

Regarding `COc1cccc2c1cc1c(=O)n(CC(=O)NCc3ccco3)nc(C)n12`, the activation is inactive: -1.78%.

As to `COc1ccccc1C(=O)Nc1nnc2n1CCS2`, the activation was inactive: 6.74%. Take `Cc1ccc(CCNC(=O)CN(c2ccc(C)cc2)S(=O)(=O)N(C)C)cc1`: the activation is inactive: 25.7%. Regarding `CC(C)OCc1cc(CN2CCN(c3cccc(C(F)(F)F)c3)CC2)c(O)c2ncccc12`, the activation is inactive: -12.8%. `Cc1c(Cl)cccc1NC(=O)CSc1nc(=O)n(Cc2ccco2)c2c1CCC2`: the activation is inactive: -5.66%.

With `CN(C)c1ccc(CNC(=O)C2CCN(Cc3cc4ccccc4n3Cc3ccccc3)CC2)cc1`, the activation was inactive: -38.3%. In the case of `CCSc1nnc2c(n1)OC(c1ccc(OC)c(OC)c1)N(C(C)=O)c1ccccc1-2` (centres undefined), the activation is inactive: -18.6%.

On to `CCCCCNC(=O)C1CCC(Cn2c(=O)c3sccc3n(CC(=O)NCc3cccc(OC)c3OC)c2=O)CC1` (centres undefined), for which the activation was inactive: -10.8%. As to `CCCCC(=O)Nc1nnc(S(=O)(=O)N(C)Cc2ccccc2)s1`, the activation was inactive: -3.95%. With `Cc1cccc(N(C)S(=O)(=O)c2cc3[nH]c(=O)c(=O)[nH]c3cc2C)c1`, the activation is inactive: -2.83%. For `NS(=O)(=O)c1cc2c(cc1Cl)NCNS2(=O)=O` the value was inactive: -0.915% and inactive: 14%; for `O=C1C(=O)N(C2CCN(C(=O)c3ccccc3F)CC2)CCN1Cc1ccc(F)cc1`, inactive: 13.7%; for `COc1ccc(Cl)cc1NC(=O)CSc1ccc2nnc(CCNS(=O)(=O)c3ccccc3)n2n1`, inactive: -10.5%. The figure for `Cc1ccc(-c2noc(CSc3nnc(C)n3-c3ccc(C)c(C)c3)n2)cc1` is inactive: -8.97%; for `CCCN(CCC)C(=O)Cn1c(=O)n(CCCCCC(=O)NCc2ccccc2Cl)c(=O)c2sccc21` it is inactive: -16%; for `CCCOc1ccc(-c2cc(C(F)(F)F)c(C#N)c(SCCC(=O)O)n2)cc1` it is inactive: 21.4%.

For the molecule `Cc1ccc(S(=O)(=O)C(CNC(=O)COc2ccccc2)c2ccco2)cc1` (centres undefined), the activation was inactive: -22.1%.

For the molecule `CC(C)CCNC(=O)C(Cc1ccccc1)NS(=O)(=O)c1ccc2c(c1)c(=O)n(C)c(=O)n2C` (centres undefined), the activation is inactive: -8.67%. Turning to `Cc1cc(C)n(-c2nc3cc(Cl)ccc3nc2N2CCN(c3ccccc3F)CC2)n1`, the activation is inactive: -22.9%. With `CS(=O)(=O)N1CCc2cc(C(=O)Nc3ccc(C(F)(F)F)cc3)ccc21`, the activation is inactive: -20.7%. In the case of `O=C(Nc1ccccc1C(=O)OCc1cc(=O)n2nc(C3CC3)sc2n1)c1cccc(F)c1`, the activation is inactive: 2.8%. With `Cc1ccc(CNC(=O)CSc2nc3n[nH]c(C)c3c(=N)n2-c2ccccc2Cl)cc1`, the activation is inactive: -17.4%. Regarding `O=C(Nc1ccc(F)c(Cl)c1)N1CCC(CN2CCOCC2)CC1`, the activation was inactive: -1.73%. For the molecule `COc1ccccc1CNC(=O)CSc1nnc(C)c2c(C)n(-c3ccccc3)nc12`, the activation is inactive: -5.06%.

`CN1C(=O)C2(SCC(=O)N2c2ccc(Cl)cc2)c2ccccc21` (centres undefined): the activation is inactive: -25.8%.

Turning to `COCCNC(=O)c1ccc(-c2nc(CS(=O)(=O)c3ccccc3)c(C)o2)cc1`, the activation was inactive: 5.35%. As to `Cc1nc2sccn2c(=O)c1S(=O)(=O)Nc1cc(C(F)(F)F)ccc1Cl`, the activation is inactive: -10.5%. `Cc1ccccc1OCCCCn1nnc2sc3c(c2c1=O)CCC(C)C3` (centres undefined): the activation was inactive: 17.2%. As to `CCOCCCn1c(SCC(=O)Nc2ccccc2Cl)nc2c(oc3ccccc32)c1=O`, the activation is inactive: -34.6%. For `Cc1ccc(CCNC(=O)c2ccc3c(c2)nc2n3CCOC2)cc1` the value was inactive: -5.96%; for `CCOc1ccc(NCc2nc3ccccc3n2CCOc2ccc(C)cc2)cc1`, inactive: -6.85%; for `CC(=O)N1CCCc2cc(S(=O)(=O)N3CCCC(C(=O)NCc4ccc(C)cc4)C3)ccc21` (centres undefined), inactive: 11.5%.
